# Results reported in the supplement of paper PMC12217912.
# Some of the results follow. Sequences were assembled here from the parent chain. Inactive controls read about 0.05.
# B1: TEV protease; numbered along this chain (parent)
# chain: MGESLFKGPRDYNPISSSICHLTNESDGHTTSLYGIGFGPFIITNKHLFRRNNGTLVVQSLHGVFKVKDTTTLQQHLVDGRDMIIIRMPKDFPPFPQKLKFREPQREERICLVTTNFQTKSMSSMVSDTSCTFPSGDGIFWKHWIQTKDGQCGSPLVSTRDGFIVGIHSASNFTNTNNYFTSVPKNFMELLTNQEAQQWVSGWRLNADSVLWGGHKVFMVKPEEPFQPVKEATQL
# Variants of: B1
# Test: raw area under fraction-flipped curve 0-4 h after induction (AUC4h, not background-subtracted), DNA-recorder readout of cleavage of the substrate (dimensionless); higher = more cleavage of the substrate by the protease variant
# Settings: temperature: 34 °C; time window: 0-4 h after rhamnose induction
# Procedure: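 In vivo DNA recorder in E. coli TOP10(DE3) ΔrhaA at 34 °C. Each TEVp single-site mutant (parent TEVp 0) is paired with a single-site variant of the 7-mer TEVs (canonical ENLYFQ|S). The substrate sits between flexible linkers in a Bxb1-sfGFP-TEVs-SsrA fusion, so cleavage stabilises Bxb1 and speeds flipping of a recombination array, read by NGS. The value is the raw area under the fraction-flipped curve over 0-4 h after rhamnose induction (AUC4h), with ≥20 reads per time point. It is not background-subtracted; inactive controls average about 0.047.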
# 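Further: Bxb1 expression induced with 0.2% (w/v) L-rhamnose at OD600 near 0.5, cultures sampled hourly, flipped fraction per protease–substrate barcode pair counted by paired-end Illumina sequencing.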
Variant,area with substrate CNLYFQS,area with substrate DNLYFQS,area with substrate FNLYFQS,area with substrate GNLYFQS,area with substrate HNLYFQS,area with substrate INLYFQS,area with substrate KNLYFQS,area with substrate LNLYFQS,area with substrate MNLYFQS,area with substrate NNLYFQS,area with substrate PNLYFQS,area with substrate QNLYFQS,area with substrate SNLYFQS,area with substrate TNLYFQS,area with substrate VNLYFQS,area with substrate WNLYFQS,area with substrate YNLYFQS,area with substrate RNLYFQS
L112K,0.0716,0.0693,0.0594,0.0723,0.0632,0.0568,0.07,0.0608,0.0661,0.0815,0.0693,0.0553,0.0656,0.0712,0.0771,0.0596,0.0781,–
L56K,0.0466,0.0609,–,–,0.0707,–,–,0.0599,0.0447,–,0.0492,–,–,0.0341,–,0.0378,0.0478,–
E224I,0.0573,0.0781,–,0.0704,0.0506,0.0544,0.0584,0.0747,0.0859,0.0519,0.0761,–,–,0.0497,0.058,–,0.0664,–
P104A,0.0615,–,0.0613,–,0.059,0.0752,0.0664,0.0694,–,–,–,–,–,0.0894,–,0.0689,–,–
A207S,0.063,0.101,0.0724,–,0.0708,0.0663,0.0531,0.0614,0.0675,0.0803,0.0494,–,0.0814,0.0683,0.0477,0.052,–,–
N24S,0.0816,0.0734,0.0437,–,0.0664,0.0655,0.061,0.0634,0.0615,0.0581,0.0624,–,0.0725,0.0466,–,0.0641,0.0511,–
S16F,0.0692,0.0633,0.0572,0.0938,0.0578,–,0.0722,–,–,–,0.0651,0.0538,–,0.0677,0.0626,0.0625,0.0597,0.0835
P104H,0.0668,0.0621,0.0481,0.0458,0.047,0.046,0.0568,–,0.0597,–,0.0637,–,0.0343,0.0694,0.0448,0.0491,0.0398,–
S124K,0.0778,0.0792,0.0613,0.0725,0.0802,0.0837,0.0575,0.0635,0.0499,0.104,–,–,0.056,0.0653,0.146,0.068,0.0641,–
I15L,0.0641,0.0807,0.0526,0.0636,0.068,0.0687,0.0779,0.065,–,0.0596,0.0685,0.0669,0.0632,0.0758,0.0566,0.0642,0.0613,0.0622
H76C,0.0734,0.0883,0.0645,0.0745,0.0672,0.0803,0.0738,0.0579,–,0.065,0.0809,–,0.0689,0.0656,–,0.058,–,–
N24F,0.0836,–,0.0729,–,0.0619,0.0623,–,0.0737,0.0705,0.0698,0.071,0.0601,0.0823,0.0583,–,0.0532,0.0607,0.0555
T72Q,0.077,0.0766,–,0.0773,0.0629,0.0656,–,0.0763,0.078,0.0567,0.0526,–,0.0659,0.0653,0.0676,0.0641,0.0953,–
S17G,0.0602,0.0716,0.072,0.0948,0.0651,0.07,0.0724,0.0618,0.0789,0.0648,0.0655,–,0.0714,0.0676,0.0714,0.0597,0.0631,–
K98W,0.0682,0.072,–,–,0.0601,0.064,–,0.06,0.0717,–,0.0691,–,–,0.049,–,0.076,0.0606,0.0526
M88V,0.0851,0.135,0.0569,0.0665,0.0604,0.0536,0.0654,–,–,0.0751,–,–,0.0575,–,0.0747,0.0562,0.0585,–
T176P,0.066,–,–,–,0.0803,–,–,0.0701,–,0.0395,0.0713,–,0.064,0.0666,–,0.0632,0.054,0.0615
S17C,0.0663,0.0795,0.0521,0.075,0.0512,0.0552,0.0686,0.0685,0.0618,–,0.0721,–,0.0501,0.064,–,0.0643,0.0715,–
I145T,0.0541,0.0803,0.0607,–,0.0604,0.0508,0.0764,0.0744,0.0563,–,0.0626,0.0727,0.0745,0.0869,0.0703,0.0611,0.056,–
V200C,0.0682,0.0555,0.0631,0.0276,0.0603,0.0504,–,0.0501,0.0686,0.0527,0.0608,0.06,0.0593,–,0.0468,0.057,–,–
T132D,0.0655,0.0415,0.0611,0.0477,0.0464,0.0556,0.063,0.0485,0.0628,0.0753,0.0525,0.0521,0.0637,0.0511,0.0611,0.0538,0.0366,–
W212V,0.0793,0.0613,–,–,0.0603,0.0577,0.0621,0.0424,0.0698,–,–,–,0.0663,–,0.0665,0.0628,0.0682,–
G8W,0.109,–,–,0.0612,0.0574,–,0.0744,–,–,–,–,–,0.0669,0.0655,0.0544,0.0569,0.0697,–
R160G,0.0731,–,0.0811,–,0.0597,–,0.0704,0.0642,–,–,0.0522,–,0.0859,0.0848,0.0643,0.0588,0.0651,–
F117V,0.0805,0.0795,–,0.0629,0.0641,0.0619,0.0692,–,0.0687,0.0535,0.0652,–,0.066,0.04,–,0.0592,0.0554,0.0529
V200F,0.0575,–,–,–,0.0528,0.0565,–,–,–,0.0723,–,0.0987,0.0598,0.0535,–,–,0.0729,0.0671
